Results on 75 compounds are retold here after the supplement of paper PMC8183993.

Where a name gives a salt, the structure may show the parent alone. ± gives the standard deviation of the averaged measurements. Whole data set: some 3,200 compounds, median “nuclei count (viability) relative to DMSO” near 99, cut for the lowest 2% near 16. The list shows a part of the results.

In this test the test system is U2OS. In words: nuclei count (viability) relative to DMSO (% of DMSO); higher = more viable cells. To be noted: 10 µM; 24 h. Here is the method: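 Primary image-based screen in U2OS cells: compounds at 10 uM for 24 h, then a 1 h o-propargyl-puromycin (OPP) pulse, click labelling, and high-throughput microscopy. Mean cytoplasmic OPP intensity and nuclei count were normalised to DMSO wells within each plate (DMSO = 100) and averaged over triplicate plates.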
For `Cc1cc(C)c2c(c1)[C@@H](N(Cc1cc(C(F)(F)F)cc(C(F)(F)F)c1)c1nnn(C)n1)CCCN2C[C@H]1CC[C@H](C(=O)O)CC1`, the nuclei count was found to be 102.
Compound `CNC(=O)c1ccccc1Nc1nc(Nc2ccc(N3CCOCC3)cc2OC)ncc1Cl` registered a nuclei count of 38.9 ± 1.6.
The compound `CC1=C(C(=O)Nc2cc3cn[nH]c3cc2F)C(c2ccc(C(F)(F)F)cc2)CC(=O)N1` (stereo not given) yielded a nuclei count of 87.7 ± 1.7.
In turn, `CCOC(=O)c1ncn2c1CN(C)C(=O)c1cc(F)ccc1-2` [Flumazenil] had a nuclei count of 95.1.
Take `CC[C@H](NC(=O)c1c(C)c(-c2ccccc2)nc2ccccc12)c1ccccc1`: the nuclei count was 105.
The compound `COc1cc(/C=C/c2ccc(O)cc2)cc(OC)c1` [Pterostilbene] returned a nuclei count of 80.5.
For `NCC(O)(CS(=O)(=O)O)c1ccc(Cl)cc1` (stereo not given) [2-Hydroxysaclofen], the nuclei count was determined as 102.
To `CC(C1=C(CCN(C)C)Cc2ccccc21)c1ccccn1` (stereo in doubt) [(S)-(+)-Dimethindene maleate] belongs 101; to `O=C(O)Cc1ccc(OCCNC[C@H](O)c2ccccc2)cc1` [ZD 2079 hydrochloride], 115.
The compound `CC(C(=O)O)c1cccc(C(=O)c2ccccc2)c1` (stereo not given) [Ketoprofen] displayed a nuclei count of 95.1.
As for `COC(=O)N[C@H](C(=O)N1CCC[C@H]1c1ncc(-c2ccc(-c3ccc(-c4cnc([C@@H]5CCCN5C(=O)[C@@H](NC(=O)OC)C(C)C)[nH]4)cc3)cc2)[nH]1)C(C)C`, the nuclei count was 99.3.
Turning to `C[C@H](NC[C@H](O)CP(=O)(O)CC1CCCCC1)c1ccc(Cl)c(Cl)c1`, the nuclei count was 108.
Consider `O=S(=O)(c1ccccc1)N(CC(F)(F)F)c1ccc(C(O)(C(F)(F)F)C(F)(F)F)cc1`, for which the nuclei count is 107.
Compound `C#C[C@]1(O)CC[C@H]2[C@@H]3CCc4cc(O)ccc4[C@H]3CC[C@@]21C` [Ethinyl Estradiol] gave a nuclei count of 89.2.
In the case of `C#C[C@]1(O)CC[C@H]2[C@@H]3CCc4cc(O)ccc4[C@H]3CC[C@@]21C` [Ethinylestradiol], the nuclei count was 80.4.
To `CCCCN(CCCC)CCC(O)c1cc2c(Cl)cc(Cl)cc2c2cc(C(F)(F)F)ccc12` (stereo not given) [Halofantrine hydrochloride] belongs 110; to `COc1cc(F)c(F)c(Nc2ccc(I)cc2F)c1NS(=O)(=O)C1(C[C@H](O)CO)CC1` [Refametinib (RDEA119, Bay 86-9766)], 90.6; to `CCOc1cc(CC(=O)N[C@@H](CC(C)C)c2ccccc2N2CCCCC2)ccc1C(=O)O` [Repaglinide], 105 ± 2.7.
The compound `O=C(O)C(Cc1c[nH]c2ccccc12)N1C(=O)c2ccccc2C1=O` (stereo not given) gave a nuclei count of 96.7.
`CCOC(=O)C1=C(C)NC(C)=C(C(=O)OCC)C1c1ccccc1/C=C/C(=O)OC(C)(C)C` [Lacidipine] had a nuclei count of 78.9.
Consider `COc1ccc(C(=O)CC(=O)c2ccc(C(C)(C)C)cc2)cc1` [Avobenzone (Parsol 1789)], for which the nuclei count was 93.4.
`Cc1ccccc1C(=O)c1ccc(Nc2ccc(Br)cc2N)cc1Cl` registered a nuclei count of 98.2.
To `CC(=O)OCC(=O)[C@@]1(O)[C@H](C)C[C@H]2[C@@H]3CCC4=CC(=O)C=C[C@]4(C)[C@@]3(F)[C@@H](O)C[C@@]21C` [Dexamethasone acetate] belongs 99.8 ± 6.6; to `COc1ncnc(NS(=O)(=O)c2ccc(N)cc2)c1OC` [Sulfadoxine], 107; to `c1ccc(C(O[C@@H]2CCCN(CCc3ccc4c(c3)OCO4)C2)c2ccccc2)cc1` [Zamifenacin fumarate], 100.
Compound `COc1ccc(C(=O)c2ccccc2)c(O)c1` [Oxybenzone] registered a nuclei count of 104.
On to `COc1c(N2C[C@@H]3CCCN[C@@H]3C2)c(F)cc2c(=O)c(C(=O)O)cn(C3CC3)c12` [Moxifloxacin], for which the nuclei count was 109.
To `CC1(C)CCC[C@]2(C)[C@H]3CC(=O)O[C@]3(C)CC[C@@H]12` [Sclareolide (Norambreinolide)] belongs 94.4; to `Oc1ccc(-c2c(-c3ccccc3)nn3c(C(F)(F)F)cc(C(F)(F)F)nc23)cc1`, 100; to `CCCCCN(CCCCC)C(=O)C(CCC(=O)O)NC(=O)c1ccc(Cl)c(Cl)c1` (stereo not given) [Lorglumide sodium salt], 110.
In turn, `Cc1cc(N2CCOCC2)cc2[nH]c(-c3c(NC[C@@H](O)c4cccc(Cl)c4)cc[nH]c3=O)nc12` registered a nuclei count of 48.
Regarding `CC(C)(C)NC(=O)[C@@H]1C[C@@H]2CCCC[C@@H]2CN1C[C@@H](O)[C@H](Cc1ccccc1)NC(=O)[C@H](CC(N)=O)NC(=O)c1ccc2ccccc2n1` [Saquinavir mesylate], the nuclei count came out at 89.7.
With `COc1ccc2[nH]c([S@@+]([O-])Cc3ncc(C)c(OC)c3C)nc2c1` [Esomeprazole magnesium (Nexium)] the figure was 105; with `CS(=O)(=O)N1CCN(Cc2cc3nc(-c4cccc5[nH]ncc45)nc(N4CCOCC4)c3s2)CC1` [Pictilisib (GDC-0941)], 79.6; with `CC(C)NCC(O)c1ccc(O)c(O)c1` (stereo not given) [Isoproterenol hydrochloride], 97.7.
`Nc1nc2c(ncn2COCCO)c(=O)[nH]1` [Acyclovir] returned a nuclei count of 107 ± 15.
Compound `O=C(Nc1ccccc1)C12CC1C(=NO)c1ccccc1O2` (stereo not given) returned a nuclei count of 99.8.
In turn, `N#CCNC(=O)c1ccc(-c2ccnc(Nc3ccc(N4CCOCC4)cc3)n2)cc1` [Momelotinib (CYT387)] gave a nuclei count of 43.1.
With `COC(=O)C1=C(C)NC(C)=C([N+](=O)[O-])[C@H]1c1ccccc1C(F)(F)F` the figure was 99.5.
Compound `OCc1c[nH]c2ccccc12` [Indole-3-carbinol] gave a nuclei count of 101.
Consider `Cc1c(NC(=O)c2cccnc2)c(=O)n(-c2ccccc2)n1C` [Nifenazone], for which the nuclei count was found to be 107.
`O=C(/C=C/c1ccc(O)cc1)c1ccc(O)cc1O` [Isoliquiritigenin] gave a nuclei count of 86.5.
In the case of `CS(=O)(=O)OCCCCOS(C)(=O)=O` [Busulfan], the nuclei count came out at 96.3.
To `COc1ccccc1N1CCN(CCCCNC(=O)c2ccc(-c3ccc(C(C)=O)cc3)cc2)CC1` belongs 104; to `CCCCCCCC/C=C\CCCCCCCC(N)=O` [Oleamide], 104; to `COC1(C2=NCCN2)COc2ccccc2O1` (stereo not given), 99.7.
`OC[C@H]1O[C@@H](n2cnc3c(N[C@H]4CCC[C@@H]4O)ncnc32)[C@H](O)[C@@H]1O` returned a nuclei count of 113.
In the case of `Cc1ncc(-c2ccnc(Nc3ccc(S(C)(=O)=O)cc3)n2)n1C(C)C`, the nuclei count worked out at 45.7.
Compound `CC(C)NC[C@@H](O)COc1ccc(CC(N)=O)cc1` [(R)-(+)-Atenolol] displayed a nuclei count of 105.
The compound `NS(=O)(=O)c1cc2c(cc1C(F)(F)F)NCNS2(=O)=O` [Hydroflumethiazide] gave a nuclei count of 91.8.
In turn, `NC(=O)CCCCn1ccc(NC(N)=NCC(F)(F)F)n1` came in with a nuclei count of 93.7.
`CN(C)CCCN=c1c2ccccc2n(C)c2[nH]c(=O)n(C)c(=O)c12` returned a nuclei count of 68.8.
In turn, `C[C@@H](O[C@H]1OCCN(Cc2nn(P(=O)(O)O)c(=O)[nH]2)[C@H]1c1ccc(F)cc1)c1cc(C(F)(F)F)cc(C(F)(F)F)c1` [Fosaprepitant dimeglumine] displayed a nuclei count of 90.8.
As for `CCC(C)(Oc1ccc(C2(c3ccc(OC(C)(CC)C(=O)O)cc3)CCCCC2)cc1)C(=O)O` (stereo not given) [Clinofibrate], the nuclei count was determined as 104.
As for `COc1cc2nccc(Oc3ccc(NC(=O)NC4CC4)c(Cl)c3)c2cc1C(N)=O` [E7080 (Lenvatinib)], the nuclei count is 97.52 ± 0.17.
Take `CCn1c(=O)[nH]c2cc(Cl)c(Cl)cc21`: the nuclei count is 113.
The compound `CC(=N)NCCCC[C@H](N)C(=O)O` [L-NIL hydrochloride] had a nuclei count of 112.
With `CN1CCc2c(c3ccccc3n2Cc2ccc(C(=O)NO)cc2)C1` [Tubastatin A HCl] the figure was 58.9; with `CC[C@@H]1C(=O)OC[C@@H]1Cc1cncn1C` [Pilocarpine hydrochloride], 103; with `CC[C@@H]1C(=O)OC[C@@H]1Cc1cncn1C` [Pilocarpine nitrate], 109.
Take `CC(C)(CO)c1cc2cc(NC(=O)C3(c4ccc5c(c4)OC(F)(F)O5)CC3)c(F)cc2n1C[C@@H](O)CO`: the nuclei count turned out to be 102.
For the compound `Cc1c(CN2CCN(C(=O)[C@H](C)O)CC2)sc2c(N3CCOCC3)nc(-c3cnc(N)nc3)nc12` [Apitolisib (GDC-0980, RG7422)], the nuclei count came out at 74.8.
For `Cc1cnc(-c2cc(N3CCN(C(=O)CCS(C)(=O)=O)CC3)ncc2Cl)c(C)c1`, the nuclei count is 105.
`CC(=O)CC(c1ccccc1)c1c(O)c2ccccc2oc1=O` (stereo not given) [Warfarin]: the nuclei count was 89.6.
For the compound `NS(=O)(=O)c1cc2c(cc1Cl)NC(C1CC3C=CC1C3)NS2(=O)=O` (stereo not given) [Cyclothiazide], the nuclei count was 105.
Compound `S=C(S)N1CCCC1` [Pyrrolidinedithiocarbamate ammonium] displayed a nuclei count of 84.9.
Regarding `CO[C@@H]1[C@@H](O[C@@H]2O[C@H](C)[C@@H](O[C@H]3C[C@@](C)(O)[C@@H](OC(=O)CC(C)C)[C@H](C)O3)[C@H](N(C)C)[C@H]2O)[C@@H](CC=O)C[C@@H](C)[C@@H](O)/C=C/C=C/C[C@@H](C)OC(=O)C[C@H]1OC(C)=O` [Josamycin], the nuclei count was found to be 92.7.
As for `O=c1oc2c(O)c(O)cc3c(=O)oc4c(O)c(O)cc1c4c23` [Ellagic acid], the nuclei count was determined as 105.
Regarding `O=c1oc2c(O)c(O)cc3c(=O)oc4c(O)c(O)cc1c4c23` [Ellagic Acid], the nuclei count is 99.7.
With `CC(=O)OCC(=O)[C@@]12OC(C)(C)O[C@@H]1C[C@H]1[C@@H]3C[C@H](F)C4=CC(=O)C=C[C@]4(C)[C@@]3(F)[C@@H](O)C[C@@]12C` [Fluocinonide] the figure was 109; with `CC(=O)OCC(=O)[C@@]12OC(C)(C)O[C@@H]1C[C@H]1[C@@H]3C[C@H](F)C4=CC(=O)C=C[C@]4(C)[C@@]3(F)[C@@H](O)C[C@@]12C` [Fluocinonide (Vanos)], 91.9.
Take `c1ccc2c(CC3=NCCN3)cccc2c1` [Naphazoline hydrochloride]: the nuclei count turned out to be 103.
Compound `CCN(CC)CC(=O)Nc1c(C)cccc1C` [Lidocaine hydrochloride] registered a nuclei count of 98.8.
To `CC(=O)NS(=O)(=O)c1ccc(N)cc1` [Sulfacetamide sodic hydrate] belongs 98.2; to `CC(=O)NS(=O)(=O)c1ccc(N)cc1` [Sulfacetamide Sodium], 111.
